Source: PubChem BioAssay AID2675 (National Center for Advancing Translational Sciences (NCATS), 2010)
The whole screen tested about 280,000 compounds, of which about 100 (0.036%) were called active. The shares of active, inactive and inconclusive entries below differ from those in the screen. Calls come from the whole dose curve; as a rule, active = well fitted inhibition curve with a large enough effect in the signal ratio, with a control signal flat (not every such curve was filed as active); inconclusive = small, poorly fitted or top-dose-only effect, or effect the other way, or a change in a side signal; inactive = no such curve, though single readings can be large or run the other way; the % refers to the signal ratio. Where the call is inconclusive, the potency comes from a doubtful curve fit. “Side channel” marks fits to a control or component signal instead of the main read-out.

What follows are compounds tested against Muscleblind-like protein 1 (Homo sapiens) (UniProt Q9NR56) (assay: qHTS Assay for Inhibitors of MBNL1-poly(CUG) RNA binding). Conditions: TR-FRET MBNL1-His/biotin-(CUG)12 binding, 665/545 ratio; series mostly up to 57.5 µM.
Outline: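 TR-FRET readout: Ex 340 nm, 665/545 nm emission ratio, normalized to buffer-only (basal) and MBNL1-(CUG)12 controls. Complex of MBNL1-His with Biotin-(CUG)12, compounds 92 nM–58 uM, incubated 60 min at room temperature.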
Potency is the fitted concentration of half-maximal effect; tags give direction and shape of the fitted curve or compound fluorescence and quenching.

Chain of UniProt Q9NR56 (Q9NR56 whole entry, looked up): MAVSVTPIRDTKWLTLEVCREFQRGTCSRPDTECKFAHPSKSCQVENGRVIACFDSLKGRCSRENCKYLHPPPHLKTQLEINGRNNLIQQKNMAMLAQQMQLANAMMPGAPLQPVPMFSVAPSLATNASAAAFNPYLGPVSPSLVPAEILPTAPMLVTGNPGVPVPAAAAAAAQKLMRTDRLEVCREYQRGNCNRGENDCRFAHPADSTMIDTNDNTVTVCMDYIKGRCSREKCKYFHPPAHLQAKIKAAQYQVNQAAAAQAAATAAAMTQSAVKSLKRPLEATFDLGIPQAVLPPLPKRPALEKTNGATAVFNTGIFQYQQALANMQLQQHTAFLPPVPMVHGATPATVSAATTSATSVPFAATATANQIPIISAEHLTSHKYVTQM

| SMILES | Potency |
| --- | --- |
| O=c1[nH]c2cc3ccccc3cc2nc1C(F)(F)F | inconclusive: 17.8 µM [quencher, partial curve] |
| O=C(NNC(=O)c1ccncc1)Nc1cccc(C(F)(F)F)c1 | inactive |
| COc1ccc(-c2ccnc3cc(C(=O)O)nn23)cc1 | inconclusive: 8.91 µM [quencher, side channel, partial curve] |
| CCC(=O)Nc1nc(C)c(-c2csc(Nc3ccccn3)n2)s1 | inconclusive: 25.1 µM [quencher, side channel, single point] |
| Cc1cc(C)cc(Nc2nc3ccc(C)cc3n3cnnc23)c1 | inactive |
| CN(C1=C(NC(=O)c2ccc(Cl)cc2)C(=O)c2ccccc2C1=O)c1ccccc1 | inconclusive: 3.55 µM [quencher, side channel, partial curve, poor fit] |
| O=C(COC(=O)c1cccc2c1C(=O)c1ccccc1C2=O)NC1CCCCC1 | inconclusive: 14.1 µM [quencher, side channel, partial curve] |
| NC1=NC(=O)/C(=C/c2cn(CCC(=O)O)nc2-c2ccc(Cl)cc2)S1 | inconclusive: 14.1 µM [quencher, side channel, partial curve] |
| CCCC12CN3CC(C)(CN(C1)C3c1ccc([N+](=O)[O-])o1)C2=O (configuration not stated) | inconclusive: 14.1 µM [quencher, side channel, partial curve] |
| O=C(CSc1nc2c(c(=O)n1-c1ccc(F)cc1)SCC2)NCC1CCCO1 (configuration not stated) | inconclusive: 28.2 µM [quencher, single point] |
| CCc1nnc(NC(=O)CSc2nnc(-c3ccccc3O)n2-c2ccc(C)cc2)s1 | inconclusive: 35.5 µM [fluorescent, side channel, single point] |
| O=C(Oc1c(CN2CCOCC2)cc(Cl)c2cccnc12)c1cccs1 | inconclusive: 17.8 µM [quencher, side channel, partial curve] |
| COc1ccc(CCn2c(=N)c(C(=O)NCc3ccco3)cc3c(=O)n4cccc(C)c4nc32)cc1 | inconclusive: 14.1 µM [quencher, side channel, partial curve] |
| Cc1ccc(C2C(C#N)=C(N)Oc3n[nH]c(-c4ccccc4)c32)o1 (configuration not stated) | inactive |
| COC(=O)c1ccccc1OC(=O)c1cc2ccccc2oc1=O | inconclusive: 14.1 µM [quencher, side channel, partial curve] |
| CCCCCC1NC(=O)NC1CCCCCC(=O)O (configuration not stated) | inactive |
| COc1ccc(OC)c(/C=N/NC(=O)c2ccc(=O)[nH]n2)c1 | inconclusive: 10 µM [quencher, side channel, partial curve] |
| CCn1c(CNC(=O)c2ccco2)nnc1SCC(=O)Nc1cc(C(F)(F)F)ccc1Cl | inconclusive: 0.891 µM [quencher, side channel, single point] |
| O=[N+]([O-])c1ccc(NC(=S)NCc2ccc(F)cc2)cc1 | inconclusive: 14.1 µM [quencher, side channel, partial curve, poor fit] |

| SMILES | Potency |
| --- | --- |
| Cc1ccc(CC(=O)Nc2ccc(F)c([N+](=O)[O-])c2)cc1C | inconclusive: 12.6 µM [quencher, side channel, partial curve] |
| COc1ccc(/C=C2\Sc3ccc(C(=O)NCCN4CCCCCC4)cc3N(C)C2=O)cc1 | inconclusive: 14.1 µM [quencher, side channel, partial curve] |
| Cc1c(Cl)c([N+](=O)[O-])nn1CCCC(=O)O | inconclusive: 25.1 µM [quencher, side channel, single point] |
| O=C(NCCc1ccccc1)C1CCCN1S(=O)(=O)c1cccc2nsnc12 (configuration not stated) | inconclusive: 14.1 µM [quencher, partial curve] |
| Cc1ccc(CNC(=O)COc2ccc(C)nc2[N+](=O)[O-])cc1 | inconclusive: 17.8 µM [quencher, side channel, partial curve] |
| CCOC(=O)c1nnn(-c2nonc2N)c1CN(CC)CC | inconclusive: 3.16 µM [quencher, side channel, single point] |
| CS(=O)(=O)c1ccc(C(=O)OCc2nnc(-c3ccccc3)o2)cc1[N+](=O)[O-] | inconclusive: 15.8 µM [quencher, partial curve] |
| Cc1ccc(NC(=O)c2nc(S(=O)(=O)Cc3ccccc3)ncc2Cl)cc1 | inconclusive: 22.4 µM [quencher, side channel, single point] |
| COc1ccccc1N1CCN(C(=O)c2ccc([N+](=O)[O-])s2)CC1 | inconclusive: 44.7 µM [quencher, side channel, partial curve, poor fit] |
| O=C(CCN1C(=O)/C(=C/c2ccccc2F)SC1=S)NCCCN1CCOCC1 | inconclusive: 14.1 µM [quencher, side channel, partial curve] |
| Cc1nnc(N2C(=O)C(=O)/C(=C(/O)c3ccc4c(c3)CC(C)O4)C2c2ccccc2F)s1 (configuration not stated) | inconclusive: 25.1 µM [quencher, side channel, single point] |
| O=c1nc2cccc3c2=c(/c1=C(\O)c1ccccc1)c1ccccc1c3=O | inconclusive: 8.91 µM [quencher, side channel, partial curve] |
| COCCNC(=O)c1cc2cc3ccc(OC)cc3nc2o1 | inconclusive: 6.31 µM [quencher, side channel, partial curve] |
| Cc1cccc(C)c1N=C1C(=O)Nc2ccccc21 | inconclusive: 31.6 µM [quencher, side channel, single point] |
| O=C(CNC(=O)c1ccccc1)Nc1cccc(C(F)(F)F)c1 | inconclusive: 28.2 µM [fluorescent, side channel, single point] |
| CCOC(=O)/C(C#N)=C/Nc1ccccc1OC | inactive |
| O=C1c2cccc3c([N+](=O)[O-])ccc(c23)C(=O)N1c1nccs1 | inconclusive: 6.31 µM [quencher, partial curve] |
| CC1C(=NO)C(C)C(c2ccc(N(C)C)cc2)NC1c1ccc(N(C)C)cc1 (configuration not stated) | inactive |
